Test results published in PubChem BioAssay AID687022 (Broad Institute, 2013).
Screen size: about 1,000 compounds; about 360 (36%) were called active.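 How the source made its calls: active means Fitted curve of melting temperature shift crosses the 1.0 threshold at or below the sample's highest valid tested concentration; inconclusive means Flat fit with activity 30 to 70, or invalid fit; inactive means Opposite direction, flat within 30, or no crossing.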 The list lacks most of the strong results.

What follows are compounds tested against Fibroblast growth factor 22 (Homo sapiens) (UniProt Q9HCT0) (assay: FGF22 ligand-induced thermal stabilization – biophysical, thermal shift, cherry-pick, FGF22 synaptogenesis inhibitor project, dose response (AID 687022; further: reference of the scale not given here)). Conditions: recombinant FGF22 thermal shift, SYPRO orange melting; at 38 µM (top of the series) unless noted.
Sequence of UniProt Q9HCT0 (Q9HCT0 whole entry, looked up): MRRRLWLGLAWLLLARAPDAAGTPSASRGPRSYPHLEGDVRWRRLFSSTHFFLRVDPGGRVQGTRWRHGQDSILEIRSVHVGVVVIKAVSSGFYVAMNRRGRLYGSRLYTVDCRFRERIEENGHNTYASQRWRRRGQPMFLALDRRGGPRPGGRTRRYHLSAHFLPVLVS

Question: With `Oc1c(CN2CCOCC2)cc(CN2CCOCC2)c(O)c1O` as the compound, how does the Tm shift activity read?
Answer: inactive: 0.514%

Question: Which Tm shift activity does the source give for `CC(=O)Nc1ccc(C(=O)N/N=C/c2cc(Br)cc(Br)c2O)cc1` here?
Answer: inactive: 0.474%

Question: With `O=C(Nc1ccc(S(=O)(=O)Nc2ccccn2)cc1)c1cccc([N+](=O)[O-])c1` as the compound, how does the Tm shift activity read?
Answer: inactive: -0.171%

Question: With `COc1ccc2c3c([nH]c2c1)[C@H](CO)N(C(=O)Nc1ccc(F)cc1)CC31CCN(S(=O)(=O)c2cccs2)CC1` as the compound, how does the Tm shift activity read?
Answer: inactive: -0.117% [at 42 µM]

Question: How did the Tm shift activity turn out when `COc1cc(C)ccc1NC(=O)Cc1csc(NC(=O)Nc2ccccc2OC)n1` was run?
Answer: inactive: 0.619%

Question: With `COc1cc2oc(-c3ccc(O)cc3)cc(=O)c2c(O)c1OC` as the compound, how does the Tm shift activity read?
Answer: inactive: 0.803%

Question: With `C[C@@H]1CN([C@@H](C)CO)C(=O)c2cc(NC(=O)C3CC3)ccc2O[C@@H]1CN(C)C(=O)Nc1ccc2c(c1)OCO2` as the compound, how does the Tm shift activity read?
Answer: inactive: 0.089% [at 42 µM]

Question: Which Tm shift activity does the source give for `O=C(O)c1cc2cccc(S(=O)(=O)N3CCCCC3)c2cc1O` here?
Answer: inactive: 0.828% [at 5 µM]

Question: `CCCN1C[C@H](C)[C@H](OC)CN(C)C(=O)c2cc(NC(=O)c3cnccn3)ccc2OC[C@@H]1C` was tested. Which Tm shift activity did it give?
Answer: inactive: -0.196%

Question: Which Tm shift activity does the source give for `COc1ccccc1-c1cnc2c(c1)C(=O)N([C@@H](C)CO)C[C@H](C)[C@H](CN(C)C(=O)c1cccnc1)O2` here?
Answer: inactive: 0.195%

Question: How did the Tm shift activity turn out when `COCC(=O)N(C)C[C@H]1Oc2cc(C#Cc3ccccc3)ccc2S(=O)(=O)N([C@H](C)CO)C[C@H]1C` was run?
Answer: inactive: 0.274% [at 42 µM]

Question: With `Cc1nc(NC(=O)C2CC2)sc1C(=O)Nc1ccccc1Cl` as the compound, how does the Tm shift activity read?
Answer: inactive: -0.05%

Question: `Cn1cnc(S(=O)(=O)N2C[C@H](O)COC[C@@H]3O[C@@H](CC(=O)NCc4ccc(F)cc4)CC[C@H]32)c1` was tested. Which Tm shift activity did it give?
Answer: inactive: -0.209% [at 42 µM]

Question: For `COc1ccc(CN(C)C[C@H]2Oc3c(NS(C)(=O)=O)cccc3C(=O)N([C@@H](C)CO)C[C@H]2C)cc1`, which Tm shift activity is on record?
Answer: inactive: 0.721%

Question: For `COCC(=O)Nc1ccc2c(c1)[C@@H]1C[C@@H](CC(=O)NCc3ccccn3)O[C@@H](CO)[C@@H]1O2`, which Tm shift activity is on record?
Answer: inactive: -0.139% [at 42 µM]

Question: Which Tm shift activity does the source give for `C[C@@H]1CN([C@@H](C)CO)C(=O)CCCn2nncc2CO[C@@H]1CN(C)S(=O)(=O)c1ccc(F)cc1` here?
Answer: inactive: 0.073% [at 42 µM]

Question: With `COc1ccc(C(C)(NC(C)=O)c2nc(-c3ccncc3)cs2)cc1` (stereo not given) as the compound, how does the Tm shift activity read?
Answer: inactive: -0.006%

Question: Which Tm shift activity does the source give for `CC(C)(C)N1C(=O)c2c(C(=O)OCc3ccccc3)[nH]c(-c3ccccc3)c2C1=O` here?
Answer: inactive: -0.306%

Question: With `CN1C(=O)c2cccc3c(N)ccc(c23)C1=O` as the compound, how does the Tm shift activity read?
Answer: inactive: 0.027% [at 5 µM]

Question: How did the Tm shift activity turn out when `CCC(=O)N1CCCCN2[C@H](CO)[C@@H](c3ccc(C#Cc4ccccc4F)cc3)[C@H]2C1` was run?
Answer: inactive: -0.546% [at 42 µM]

Question: For `COc1ccc(C2=NN(c3ccccc3)C(c3cn(CCC(=O)O)nc3-c3ccccc3)C2)cc1` (stereo not given), which Tm shift activity is on record?
Answer: inactive: -0.245% [at 19.5 µM]

Question: How did the Tm shift activity turn out when `O=C(Nc1cccc(F)c1)N1CC(=O)N2[C@@H](CO)[C@@H](c3ccc(Br)cc3)[C@@H]2C1` was run?
Answer: inactive: 0.352% [at 42 µM]

Question: `CC(C)C(c1nnnn1CCc1ccccc1)N1CCSCC1` (stereo not given) was tested. Which Tm shift activity did it give?
Answer: inactive: -0.187%

Question: How did the Tm shift activity turn out when `COc1ccc(NC(=O)N(C)C[C@@H]2Oc3ccc(NS(=O)(=O)c4cccs4)cc3CC(=O)N([C@H](C)CO)C[C@H]2C)cc1` was run?
Answer: inactive: -0.023%

Question: Which Tm shift activity does the source give for `O=C(COc1cccc(Cl)c1)NCC(c1cccs1)N1CCOCC1` (stereo not given) here?
Answer: inactive: -0.157%

Question: How did the Tm shift activity turn out when `COc1cc([N+](=O)[O-])ccc1NC(=O)Nc1ccc2c(c1)OCCO2` was run?
Answer: inactive: 0.262%

Question: How did the Tm shift activity turn out when `CCN(CCn1cccn1)C(=O)CCc1nnc(Cc2c[nH]c3ccccc23)o1` was run?
Answer: inactive: 0.068%

Question: With `COc1ccc(OC(C)C(=O)N(C)Cc2nc(-c3cccc(C)c3)no2)cc1` (stereo not given) as the compound, how does the Tm shift activity read?
Answer: inactive: -0.224%

Question: Which Tm shift activity does the source give for `CC1(C(=O)O)CCN1C(=O)c1ccccc1F` (stereo not given) here?
Answer: inactive: -0.171%

Question: With `O=C(C[C@H]1C[C@H]2c3cc(NC(=O)NC4CCCC4)ccc3O[C@H]2[C@@H](CO)O1)NCCN1CCCCC1` as the compound, how does the Tm shift activity read?
Answer: inactive: -0.018% [at 42 µM]

Question: How did the Tm shift activity turn out when `CC(=O)N(C)C[C@H]1Oc2ncc(C#C[C@H](C)O)cc2C(=O)N([C@@H](C)CO)C[C@@H]1C` was run?
Answer: inactive: 0.023%

Question: For `O=C(N[C@@H]1C=C[C@@H](CC(=O)N2CCCCC2)O[C@@H]1CO)c1cccc(F)c1`, which Tm shift activity is on record?
Answer: inactive: -0.288% [at 42 µM]

Question: `CCC(=O)N1[C@H](CO)[C@@H](c2ccccc2)C12CN(C(=O)c1cnccn1)C2` was tested. Which Tm shift activity did it give?
Answer: inactive: -0.156%

Question: `CO[C@H]1CN(C)C(=O)c2cc(NS(=O)(=O)c3ccc(C)cc3)ccc2OC[C@@H](C)N(C(=O)NC(C)C)C[C@@H]1C` was tested. Which Tm shift activity did it give?
Answer: inactive: -0.312%

Question: Which Tm shift activity does the source give for `O=C(COC(=O)c1ccccc1Br)NCCC1=CCCCC1` here?
Answer: inactive: -0.363%

Question: For `COc1ccc(S(=O)(=O)Nc2cc3c4c(c2)CCN4C(=O)CC3)cc1OC`, which Tm shift activity is on record?
Answer: inactive: -0.179%

Question: Which Tm shift activity does the source give for `CC(=O)N1[C@@H](CO)[C@@H](c2ccccc2)C12CN(C(=O)c1ccccn1)C2` here?
Answer: inactive: 0.134% [at 42 µM]

Question: How did the Tm shift activity turn out when `Cc1ccccc1-n1ncc2c1CC(C)(C)CC2NC(=O)C1CCC1` (stereo not given) was run?
Answer: inactive: 0.1%

Question: `O=S(=O)(Nc1ccccc1OC(F)F)c1ccc(S(=O)(=O)N2CCCC2)cc1` was tested. Which Tm shift activity did it give?
Answer: inactive: -0.024%

Question: With `CNC(=O)C[C@@H]1CC[C@@H]2[C@H](COc3ccc(NC(=O)c4cccc(F)c4)cc3C(=O)N2C)O1` as the compound, how does the Tm shift activity read?
Answer: inactive: 0.042%

Question: `O=C(NC1CCCCC1)c1cc(-c2cccc(Cl)c2)on1` was tested. Which Tm shift activity did it give?
Answer: inactive: -0.21%

Question: With `COc1ccccc1-c1cccc(-c2nc(C(=O)NCc3ccncc3)cc3c2[C@@H](CCO)N([S@](=O)C(C)(C)C)C3)c1` as the compound, how does the Tm shift activity read?
Answer: inactive: 0.136%

Question: With `Cc1ccc(S(=O)(=O)NCCSc2nnnn2-c2ccccc2)cc1` as the compound, how does the Tm shift activity read?
Answer: inactive: -0.636%

Question: How did the Tm shift activity turn out when `C/C=C/c1cnc2c(c1)C(=O)N([C@@H](C)CO)C[C@H](C)[C@@H](CN(C)C(=O)c1ccc3c(c1)OCO3)O2` was run?
Answer: inactive: 0.061%

Question: Which Tm shift activity does the source give for `Cc1ccc(S(=O)(=O)Nc2ccc3c(c2)C(=O)N([C@@H](C)CO)C[C@H](C)[C@@H](CN(C)CC2CCCCC2)O3)cc1` here?
Answer: inactive: -0.147% [at 42 µM]

Question: With `Oc1ccc(-c2cnc3ccccc3n2)cc1` as the compound, how does the Tm shift activity read?
Answer: inactive: 0.065%

Question: How did the Tm shift activity turn out when `Cc1cc(C)cc(C(=O)NCC(=O)N2CCN(c3cccc(Cl)c3)CC2)c1` was run?
Answer: inactive: -0.367%

Question: For `COc1ccc(S(=O)(=O)N[C@@H]2C=C[C@H](CC(=O)NCCc3ccccc3)O[C@@H]2CO)cc1`, which Tm shift activity is on record?
Answer: inactive: 0.685% [at 42 µM]

Question: `CC(C)N(C[C@H]1N[C@H](CO)[C@H]1c1ccccc1)S(=O)(=O)c1ccccc1` was tested. Which Tm shift activity did it give?
Answer: inactive: -0.678% [at 42 µM]

Question: `COc1cc(C)c2c(c1C=O)Oc1c(c(C)c(O)c3c1C(O)OC3=O)OC2=O` (stereo not given) was tested. Which Tm shift activity did it give?
Answer: inactive: 0.913% [at 5 µM]

Question: With `N#C[C@@H]1[C@H](c2ccc(-c3cccnc3)cc2)[C@H](CO)N1C(=O)Nc1ccc(F)cc1` as the compound, how does the Tm shift activity read?
Answer: inactive: -0.106% [at 42 µM]

Question: `Cc1ccccc1NCC(=O)N/N=C\C=C\c1cccc([N+](=O)[O-])c1` was tested. Which Tm shift activity did it give?
Answer: inactive: -0.039%

Question: For `COc1ccc(S(=O)(=O)N/N=c2\oc3c(OC)cccc3cc2S(=O)(=O)c2ccc(C)cc2)cc1OC`, which Tm shift activity is on record?
Answer: inactive: 0.599%

Question: How did the Tm shift activity turn out when `COc1ccc(NC(=O)N(C)C[C@@H]2Oc3ccc(NS(=O)(=O)c4ccc(OC)cc4)cc3CC(=O)N([C@H](C)CO)C[C@@H]2C)cc1` was run?
Answer: inactive: 0.038%

Question: `Cc1ccc(-c2nnn(CC(=O)NCCc3ccc4c(c3)OCO4)n2)cc1` was tested. Which Tm shift activity did it give?
Answer: inactive: -0.159%

Question: With `C[C@H](O)C#Cc1ccc2c(c1)O[C@H](CN(C)C(=O)Cc1ccccn1)[C@@H](C)CN([C@H](C)CO)S2(=O)=O` as the compound, how does the Tm shift activity read?
Answer: inactive: -0.188%

Question: With `COCC(=O)Nc1ccc2c(c1)OC[C@@H](C)N(C)C[C@H](C)[C@@H](OC)CN(C)C2=O` as the compound, how does the Tm shift activity read?
Answer: inactive: 0.133%

Question: For `O=C(NCCc1c[nH]c2ccccc12)C(=O)NCC1CCCO1` (stereo not given), which Tm shift activity is on record?
Answer: inactive: -0.006%

Question: `COc1cccc(C#Cc2ccc([C@H]3[C@@H](CO)N4C(=O)CN(C(=O)c5ccccc5)C[C@@H]34)cc2)c1` was tested. Which Tm shift activity did it give?
Answer: inactive: -6.85% [at 42 µM]

Question: With `COc1ccc(NC(=O)N(C)C[C@@H]2Oc3ccc(NC(=O)NC(C)C)cc3CC(=O)N([C@H](C)CO)C[C@@H]2C)cc1` as the compound, how does the Tm shift activity read?
Answer: inactive: 0.066%

Question: `C[C@@H]1CCCCO[C@@H](CN(C)Cc2ccncc2)[C@H](C)CN([C@H](C)CO)C(=O)c2cc(NC(=O)Cc3ccccc3)ccc2O1` was tested. Which Tm shift activity did it give?
Answer: inactive: -0.052%

Question: Which Tm shift activity does the source give for `CCCNC(=O)COCc1cc(-c2ccc3c(c2)OCO3)on1` here?
Answer: inactive: 0.027%

Question: With `COCC(=O)Nc1ccc2c(c1)OC[C@H](C)N(C)C[C@@H](C)[C@@H](OC)CN(C)C2=O` as the compound, how does the Tm shift activity read?
Answer: inactive: -0.002% [at 42 µM]

Question: For `O=c1c(Cl)c(O)c2cccc3c4ccccc4n1c23`, which Tm shift activity is on record?
Answer: inactive: 0.165% [at 10 µM]

Question: For `N#C[C@H]1[C@H](c2ccccc2-c2ccccc2F)[C@@H](CO)N1C(=O)C1CCC1`, which Tm shift activity is on record?
Answer: inactive: -0.309% [at 42 µM]

Question: How did the Tm shift activity turn out when `O=C(Cc1cccnc1)N[C@@H]1CC[C@@H](CCn2cc(-c3ccccc3F)nn2)O[C@@H]1CO` was run?
Answer: inactive: -0.139%

Question: `O=c1cc[nH]c2ccc(Cl)cc12` was tested. Which Tm shift activity did it give?
Answer: inactive: -0.177%

Question: `CC(=O)N1[C@H](CO)[C@@H](c2ccccc2)C12CN(C(=O)c1ccccn1)C2` was tested. Which Tm shift activity did it give?
Answer: inactive: -0.114% [at 42 µM]

Question: For `COc1cc2ccccc2cc1C(=O)OCC(=O)c1c(N)n(C)c(=O)n(C)c1=O`, which Tm shift activity is on record?
Answer: inactive: -0.061%

Question: With `CC(C)C#Cc1cnc2c(c1)C(=O)N([C@@H](C)CO)C[C@@H](C)[C@@H](CN(C)C(=O)c1cnccn1)O2` as the compound, how does the Tm shift activity read?
Answer: inactive: -0.115% [at 42 µM]
